# Test results: the BET-seq Pho4 binding data (Le et al. 2018)
# The other results are listed elsewhere or left out. Values were computed here from the reads of four pooled replicates and scatter widely.
# Target: T1, Pho4 (S. cerevisiae) (UniProt P07270)
# T1 sequence: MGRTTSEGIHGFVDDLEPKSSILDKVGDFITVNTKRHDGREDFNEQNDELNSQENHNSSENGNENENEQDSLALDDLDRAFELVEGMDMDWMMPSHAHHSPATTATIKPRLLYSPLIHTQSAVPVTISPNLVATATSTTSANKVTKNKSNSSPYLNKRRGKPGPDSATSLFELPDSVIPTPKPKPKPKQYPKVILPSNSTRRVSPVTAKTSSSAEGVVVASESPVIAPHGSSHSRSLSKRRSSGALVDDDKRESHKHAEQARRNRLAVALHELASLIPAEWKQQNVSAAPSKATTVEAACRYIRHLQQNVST
# Assay: relative binding free energy (BET-seq); higher = weaker binding
# Settings: reference: library average
row,Sequence,relative binding free energy
1,CGAGTCACGTGTAAGG,0.13 kcal/mol
2,TTGCACACGTGTCTGG,0.1 kcal/mol
3,GCAGGCACGTGGGGGT,-0.15 kcal/mol
4,GGTTTCACGTGTGCGA,0.39 kcal/mol
5,GGGAGCACGTGTTGGG,0.01 kcal/mol
6,GTACTCACGTGTAGTG,0.23 kcal/mol
7,TGTGTCACGTGGCAAA,0.01 kcal/mol
8,TAAGGCACGTGAGAGA,0.04 kcal/mol
9,AGGTGCACGTGTAGAG,-0.09 kcal/mol
10,GGTCACACGTGGAGGT,0.01 kcal/mol
11,GCTGTCACGTGTAGAG,0.12 kcal/mol
12,GTTGCCACGTGGTAGT,-0.13 kcal/mol
13,ATGATCACGTGAGATT,0.24 kcal/mol
14,TGCCTCACGTGGATGG,0.19 kcal/mol
15,GAGTGCACGTGTAGGT,-0.02 kcal/mol
16,CTTAACACGTGGTGGA,-0.09 kcal/mol
17,CGGGCCACGTGGCGTG,-0.24 kcal/mol
18,TTTCTCACGTGAGGCG,0.32 kcal/mol
19,GTTATCACGTGTGGGA,0.28 kcal/mol
20,GAAGTCACGTGTGAGT,0.19 kcal/mol
21,AGGCACACGTGGGTTG,-0.08 kcal/mol
22,GGCCTCACGTGAAGGG,0.43 kcal/mol
23,TCAGTCACGTGGGAGA,0.08 kcal/mol
24,GAGGACACGTGGTCGG,-0.13 kcal/mol
25,TGTTCCACGTGATGTG,0.19 kcal/mol

row,Sequence,relative binding free energy
1,ATCTGCACGTGATTTT,0.11 kcal/mol
2,GTATGCACGTGGTCGT,-0.17 kcal/mol
3,TGCGACACGTGTGGGA,0.11 kcal/mol
4,GGGTCCACGTGTTCTT,0.2 kcal/mol
5,AAGTTCACGTGAGTGT,0.35 kcal/mol
6,TACATCACGTGAGAGG,0.38 kcal/mol
7,ATTTACACGTGAAATG,0.25 kcal/mol
8,AGGGACACGTGTGAGG,0 kcal/mol
9,TTTTGCACGTGAGATT,0.39 kcal/mol
10,TGTTTCACGTGATTTC,0.4 kcal/mol
11,TAGGTCACGTGGTGCT,0 kcal/mol
12,ACGCTCACGTGGGTGT,0.06 kcal/mol
13,TGGCGCACGTGGGGAG,-0.13 kcal/mol
14,CAGATCACGTGCGGGG,0.07 kcal/mol
15,GGGGGCACGTGCCGTG,-0.21 kcal/mol
16,AATATCACGTGGATGG,0.16 kcal/mol
17,AAGTCCACGTGTTGTT,0.02 kcal/mol
18,GCGGCCACGTGCGGGG,-0.19 kcal/mol
19,CGCGACACGTGTGGGG,0 kcal/mol
20,ACAGTCACGTGTGTTT,-0.02 kcal/mol
21,TCTGTCACGTGCTGTT,-0.01 kcal/mol
22,AATGACACGTGCGGTT,0.05 kcal/mol
23,TTCATCACGTGTTATG,0.19 kcal/mol
24,AGGTGCACGTGATGGT,0.13 kcal/mol
25,CGGTACACGTGGTTTG,-0.05 kcal/mol

row,Sequence,relative binding free energy
1,GAGGGCACGTGTGAAC,0.18 kcal/mol
2,GAGCGCACGTGTGTTA,-0.03 kcal/mol
3,TGAAACACGTGTTAAA,0.16 kcal/mol
4,GTTAACACGTGTGTTG,0.16 kcal/mol
5,TTAAACACGTGAGTAG,0.23 kcal/mol
6,TAATTCACGTGTGGAC,0.4 kcal/mol
7,GGGGCCACGTGTGAGG,0.01 kcal/mol
8,GGGTTCACGTGATAGC,0.51 kcal/mol
9,CGGATCACGTGTGCTG,0.36 kcal/mol
10,GGGGTCACGTGGCCGG,0.15 kcal/mol
11,GGAGTCACGTGGGCTA,-0.11 kcal/mol
12,TCCTGCACGTGAGGGG,0.17 kcal/mol
13,TGTGGCACGTGTTCTG,-0.08 kcal/mol
14,ATGTACACGTGTAGGG,0.01 kcal/mol
15,TAAAACACGTGGTGAG,0.03 kcal/mol
16,TTTTGCACGTGTGCTA,-0.01 kcal/mol
17,TTTTACACGTGCAGTA,0.1 kcal/mol
18,AATGGCACGTGCGGTC,-0.02 kcal/mol
19,TATTGCACGTGTGCGT,-0.04 kcal/mol
20,GGAATCACGTGGTTAT,0.08 kcal/mol
21,TTATGCACGTGTATTC,-0.05 kcal/mol
22,TCGGGCACGTGGTCTT,-0.25 kcal/mol
23,CTAAACACGTGGAGGG,0.07 kcal/mol
24,TTGTTCACGTGGGCAA,0.02 kcal/mol
25,TATGACACGTGGTTTA,-0.04 kcal/mol

row,Sequence,relative binding free energy
1,GCGTTCACGTGTGGCT,0.34 kcal/mol
2,TGGTACACGTGTTCCG,0.12 kcal/mol
3,TAGCTCACGTGTTAAG,0.33 kcal/mol
4,CTTTTCACGTGTGTTG,0.24 kcal/mol
5,CGGTTCACGTGTTCGT,0.34 kcal/mol
6,AAAATCACGTGTGATG,0.19 kcal/mol
7,CATCTCACGTGATGGT,0.4 kcal/mol
8,GGCTACACGTGGAGGA,0.17 kcal/mol
9,GGGAGCACGTGTTTAG,-0.12 kcal/mol
10,GTTCACACGTGGTGGG,0.19 kcal/mol
11,GATTGCACGTGACGGT,0.23 kcal/mol
12,TGGATCACGTGGCGTA,0.16 kcal/mol
13,TAGTACACGTGGTAAA,0.13 kcal/mol
14,TGGTGCACGTGGGCTC,-0.2 kcal/mol
15,TTTTTCACGTGGCTCG,0.23 kcal/mol
16,TTTAACACGTGGACGG,0.08 kcal/mol
17,GTATGCACGTGTACGT,-0.08 kcal/mol
18,TCAGTCACGTGTGGGC,0.12 kcal/mol
19,TTTTCCACGTGGTGGC,0.05 kcal/mol
20,GTATGCACGTGAAATT,0.39 kcal/mol
21,ATTTTCACGTGTAGGT,0.18 kcal/mol
22,TAGTACACGTGGATAA,0.15 kcal/mol
23,GTGGTCACGTGCGTTC,0.11 kcal/mol
24,TGGGCCACGTGCGGTT,-0.06 kcal/mol
25,GTAGGCACGTGTCTAG,0.01 kcal/mol

row,Sequence,relative binding free energy
1,TGGACCACGTGGTGTT,-0.16 kcal/mol
2,GGGAGCACGTGGGAGA,-0.06 kcal/mol
3,TTAGTCACGTGCTGAG,0.05 kcal/mol
4,GGTGCCACGTGGGGAG,-0.18 kcal/mol
5,GTTGCCACGTGATGTC,0.28 kcal/mol
6,ATAGTCACGTGTCGTA,0.07 kcal/mol
7,GAGAGCACGTGTGCGG,-0.18 kcal/mol
8,TATGCCACGTGTGCGG,-0.14 kcal/mol
9,TGGATCACGTGGTTCG,0.11 kcal/mol
10,GTAGTCACGTGGTGTT,0.06 kcal/mol
11,ATGCTCACGTGTGGTC,0.34 kcal/mol
12,GGAGGCACGTGATGCT,0.01 kcal/mol
13,TGGTTCACGTGTCAAG,0.29 kcal/mol
14,GCTATCACGTGTTGTG,0.08 kcal/mol
15,GGTGGCACGTGTGTCG,-0.05 kcal/mol
16,TAGGACACGTGTGGAG,0.11 kcal/mol
17,GTGTGCACGTGTACTG,-0.2 kcal/mol
18,GGTACCACGTGAGGGC,0.17 kcal/mol
19,AGTTGCACGTGGCGTC,-0.18 kcal/mol
20,GTCTGCACGTGTGGGC,0.17 kcal/mol
21,CGGGGCACGTGGGCCA,-0.3 kcal/mol
22,GCGTACACGTGTTATG,0.02 kcal/mol
23,GGGTTCACGTGGATGG,0.34 kcal/mol
24,TTCATCACGTGGGGTT,0 kcal/mol
25,GAGGGCACGTGTTTTT,-0.03 kcal/mol

row,Sequence,relative binding free energy
1,GAGGCCACGTGTGTTG,0.03 kcal/mol
2,AGATGCACGTGCGGAG,-0.08 kcal/mol
3,AAGTTCACGTGAATGG,0.45 kcal/mol
4,GCGGTCACGTGTTTTT,0.32 kcal/mol
5,ATTGGCACGTGTAAGG,-0.02 kcal/mol
6,TGGGACACGTGACTTT,0.14 kcal/mol
7,TTGGTCACGTGGAGTT,0.27 kcal/mol
8,GTGGGCACGTGGCTGT,-0.08 kcal/mol
9,AGTTGCACGTGAAGGT,0.23 kcal/mol
10,ATGTGCACGTGTAATG,0.07 kcal/mol
11,TTCGGCACGTGGTATT,-0.11 kcal/mol
12,TAGTACACGTGATATG,0.12 kcal/mol
13,GATGTCACGTGCGTTT,0.06 kcal/mol
14,TGCGTCACGTGGGTGA,-0.04 kcal/mol
15,AGGGCCACGTGTCGGT,-0.09 kcal/mol
16,CGTAGCACGTGTGATG,-0.12 kcal/mol
17,CGATGCACGTGGGGTA,-0.01 kcal/mol
18,ATATACACGTGTAAGG,0.11 kcal/mol
19,AGGTGCACGTGGGGCC,-0.28 kcal/mol
20,GTAGTCACGTGCGGAT,0.01 kcal/mol
21,ATGTGCACGTGGGTCC,-0.16 kcal/mol
